# The source gives no read counts; variants with many changes may rest on few reads.
# B1: CPEB3 Ribozyme (parent)
# chain: UAACAGGGGGCCACAGCAGAAGCGUUCACGUCGCAGCCCCUGUCAGAUUCUGGUGAAUCUGCGAAUUCUGCUGUAUAUCUC
# Variants of: B1
# Assay: self-cleavage, relative activity (ratio to wild type); higher = more cleavage; in vitro, sequencing
# In short: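 Libraries of CPEB3 self-cleaving ribozyme mutants came from rounds of error-prone PCR and carried barcodes, which DNA sequencing matched to variants. In vitro transcription used T7 RNA polymerase at 37°C for 5 hours, with a further 15 min in DNase I before EDTA stopped the reaction; the ribozymes cleaved during both steps. The RNA was reverse transcribed with template switching and sequenced on Illumina. Relative activity is the cleaved/total read fraction of a variant divided by that of the unmutated ribozyme, averaged over three batches with at least 5 reads.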
row,Variant,self-cleavage
1,UAACAGGGGGCCACAGCAGAAGCGUUCACAUCGCAGCCCCUGUCAGAUACUGGUGAAUCUGCGAAUUCUGCCGUAUAUCUC [G30A U49A U72C],0.53
2,UAACAGGGGGCCACAGCAGAAGCGUUCAUGACGCGGCCCCUGUCAAGUUCUGGUGAAUCUGCGAAUUCUGCUGUAUAUCUC [C29U U31A A35G G46A A47G],0.27
3,UAACAGGGGGCCACAGCAGAAGCGUUCAUGCCGCAGCCCCUGUCAGAUUCUGGUGAAUCUGCGAAUUCUGCUGUACAUCUC [C29U U31C U76C],0.43
4,UAACAGGGGGCCACAGCAGAAGCGUUCAUGUCGCAGCCCCAGUCAGAUUCUGGUGAAUCUGCGGAUUCUGCAGCAUAUCCC [C29U U41A A64G U72A U74C U80C],0.19
5,UAACAGGGGGCCACAGCAGAAGCGUUCACAUCGCAGCCCCUGUCAGAUUCUGGUGAAUCUGCGAAUUUUGCUGUAAAUCCC [G30A C68U U76A U80C],0.3
6,UAACAGGGGGCCACAGCAGAAGCGUUCAUGUCGCAGCCCCUGUCAGAUUCUGGUGAAACUGCGAGUUCUGCUGUAUAUCUC [C29U U58A A65G],0.12
7,UAACAGGGGGCCACAGCAGAAGCGUUCACAUCGCAGCCCCUGUCAGAUUCUGGUGAAUCUGCAAUUUCUGCUGUAUAUCUC [G30A G63A A65U],0.18
8,UAACAGGGGGCCACAGCAGAAGCGUUCAUGCCGCAGACCCUGUCAGAUUCCGGUGAAUCUGCGAAUUCUGCCGUAUAUCUC [C29U U31C C37A U51C U72C],0.08
9,UAACAGGGGGCCACAGCAGAAGCGUUCACAUCGCAGCCUCAGUCAGAUUCUGGUGAAUCUGCGAAUUCUGCUGUAUAUCUC [G30A C39U U41A],0.53
10,UAACAGGGGGCCACAGCAGAAGCGUUCACUUAGCAGCCCCUGUCAGAUUCUGGUGAAUCUGCGAAUUCCGCGGUAUAUCUC [G30U C32A U69C U72G],0.06
11,UAACAGGGGGCCACAGCAGAAGCGUUCACAUCGCAGCCCCAGUCAGGUUCUGGUGAAUCUGCGAAUUCUGCUGUAUAUCUC [G30A U41A A47G],0.15
12,UAACAGGGGGCCACAGCAGAAGCGUUCACAUCGCAGCCCCUGUCAGAUUCUUGUGAAUCUGCGAAUUCUGCUGUACAUCUC [G30A G52U U76C],0.21
13,UAACAGGGGGCCACAGCAGAAGCGUUCACUUCGCAGCCCCUGUCAGAUUCUGGUGAGUCGGCGAAUUCUGCUGGAUAUCUC [G30U A57G U60G U74G],0.13
14,UAACAGGGGGCCACAGCAGAAGCGUUCAUGUCGCAGCCCCUGUCAGAUUCUGGUGAAUCAGCGUAUCCUGCUGUAUAUCUC [C29U U60A A64U U67C],0.21
15,UAACAGGGGGCCACAGCAGAAGCGUUCACCUCGCAGCCCCUGUCAGAUUAUGGUGGAUCUGUUAAUUCUGCUGUAUAUCUC [G30C C50A A56G C62U G63U],0.09
16,UAACAGGGGGCCACAGCAGAAGCGUUCAUGACGCAGCCCCUGCCAGAUUCAGGUGAAUCCGCGAAUUCUGCUGUAUAUCUC [C29U U31A U43C U51A U60C],0.15
17,UAACAGGGGGCCACAGCAGAAGCGUUCACAUCGCAGCCCCUGUCAGAUCCAGGUGAUUCUGCGAAUCCUGCUGUAUAUCAC [G30A U49C U51A A57U U67C U80A],0.07

row,Variant,self-cleavage
1,UAACAGGGGGCCACAGCAGAAGCGUUCAUGUCGCAGCCCCUGUCAGAUUCUGGCGAAUCUGUGAAUUCUGCAGUAUAUCGC [C29U U54C C62U U72A U80G],0.07
2,UAACAGGGGGCCACAGCAGAAGCGUUCACAUCGCAGCCCCUGUCAGAUUCUGGUGGAUCUGCGAAUGCUGCCGUAUAUCUC [G30A A56G U67G U72C],0.05
3,UAACAGGGGGCCACAGCAGAAGCGUUCAUGUCGCAGCCCCUGUCAGAUUCUGGUGAAUCUGCGAAUCCUGCUGCAUAUCUC [C29U U67C U74C],0.17
4,UAACAGGGGGCCACAGCAGAAGCGUUCACAUCGCAGCCCCUGUCAGAUUCUGGUGAAUCUGCGAAUUCUGCCGUAUAUCCC [G30A U72C U80C],0.55
5,UAACAGGGGGCCACAGCAGAAGCGUUCACCUCGCAGCCCCUGUCAUAUUCUGGUGAUUCUGCAAAUUCUGCUGUGUAUCUC [G30C G46U A57U G63A A75G],0.05
6,UAACAGGGGGCCACAGCAGAAGCGUUCACAUCGCAGCCCCCGUCAGAUUCUGGUGAAUCUGCUAACUCUGCUGUAUAUCUC [G30A U41C G63U U66C],0.22
7,UAACAGGGGGCCACAGCAGAAGCGUUCACAGCGCAGCCCCUGUCAGAUUCUGAUGAAUCUGCGAAUUCUGCUGUAUAUCUC [G30A U31G G53A],0.23
8,UAACAGGGGGCCACAGCAGAAGCGUUCAUGUCGCAGCCCCUGCCAGAUUCUGGUGAAUCUGCGAAUUCUGCUGUAUAUCCC [C29U U43C U80C],0.37
9,UAACAGGGGGCCACAGCAGAAGCGUUCACAGCGCAGCCCCUGCCAGAUUCUGGCGAAUCUGCGAAUUCUGCUGCAUAUCUC [G30A U31G U43C U54C U74C],0.09
10,UAACAGGGGGCCACAGCAGAAGCGUUCACACCGCAGCCCCUGUCGGAUUCUGGUGAAUCUGCGAAUUCUGCUGUAUGUCUC [G30A U31C A45G A77G],0.06
11,UAACAGGGGGCCACAGCAGAAGCGUUCACAUCGCAGCCCCCGCCAGAUUCUGGUGAAUCCGCGAAUUCUGCUGUAUAUCUC [G30A U41C U43C U60C],0.1
12,UAACAGGGGGCCACAGCAGAAGCGUUCACAUCGCAGCCCCUGCCAGAUUCUGGUGCAUCUGCGAAUUCCGCUGUAUAUCUC [G30A U43C A56C U69C],0.29
13,UAACAGGGGGCCACAGCAGAAGCGUUCACCUCGCUGCCCCUGUCAGAUUCUGGUGAAUCCGCGAAUUCUGCUGUAUAUCUC [G30C A35U U60C],0.2
14,UAACAGGGGGCCACAGCAGAAGCGUUCACAUCGCAGCCCCUGGCAGAUUCUGGCGAAUCUGCUGAUCCUGCUGUAUAUCUC [G30A U43G U54C G63U A64G U67C],0.16
15,UAACAGGGGGCCACAGCAGAAGCGUUCACAUCGCAGCCCCUGUCAGAUUCAGGUGAGUCUGCGAAUUCUGCUGUAUAUCUC [G30A U51A A57G],0.11
16,UAACAGGGGGCCACAGCAGAAGCGUUCAUGUCGCAGCCCCUGCCAGAUUCAGGUGUAUCUGCGAAUUCUGCUGUAUAUCUC [C29U U43C U51A A56U],0.29
17,UAACAGGGGGCCACAGCAGAAGCGUUCACAUCACAGCCCCUGUCGGAUUCUGGUGAAUCAGCGAACUCUGCUGUAUAUCUC [G30A G33A A45G U60A U66C],0.13
